Experimental data as given in PMC4625158, “Structural evidence for the role of polar core residue Arg175 in arrestin activation” (Scientific Reports, 2015).

Target: the molecule itself
Assay: SAXS; small angle X-ray scattering in solution, 10 °C, 10 mM HEPES, 150 mM NaCl, pH 7.5; concentration series (arr-1: 1.9, 3.0 and 8.5 mg/mL; R175E: 0.4, 0.9 and 1.7 mg/mL; p44: 1.0, 2.0 and 4.6 mg/mL), data extrapolated to infinite dilution

B1: visual arrestin-1 (bovine, full length, […]) (natural protein)
chain: not shown
notes: visual arrestin-1 (arr-1), bovine, full length […]; The calculated mass of the dimer is 94.2 kDa (47.1 kDa per chain, as for R175E), so it probably carries the same unnamed tags as m1; also called arr-1; wild type arr-1; source: Saccharomyces cerevisiae F11 alpha strain, purified
  stoichiometry N: 2
